Values marked as one replicate rest on one cluster of the flow cell; about a third of the high ones do not repeat.
The sequences below were run on ATP (assay: switch fluorescence ratio, 500 uM ATP over buffer (Cy3 cluster intensity, sum of 5 cycles each) (fold (ratio)); higher = stronger signal-on switching upon ATP binding; sequences stand for … in TCGTCGGCAGCGTCAGATGTGTATAAGAGACAGTTTTTTTTTTTTTTTTTTTTTTTTT…TC). Settings: aptamer strand: ATP DNA aptamer (quencher-CACCTGGGGGAGTATTGCGGAGGAAGG + anchor), 100 nM annealed; ATP concentration: 500 uM; one replicate.
Outline: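 After annealing to 100 nM quencher-labelled ATP aptamer, Cy3-labelled switching-strand clusters on a modified Illumina MiSeq flow-cell were imaged in selection buffer. A second image followed after 15 min with 500 uM ATP at 22 °C, and five such buffer/ATP cycles were done, each separated by NaOH stripping and re-annealing. The fluorescence ratio, averaged per switch-domain sequence, is summed target-cycle over summed buffer-cycle Cy3 intensity per cluster, with clusters outside 100-1000 RFU excluded.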
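Further: ATP exposure 15 min at 22 °C before imaging.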

Sequence	switch fluorescence ratio
CAGGTCGTCA	0.984
CAGGTGAAGG	1.15
CAGGTTTCCC	1.03
CAGTAACCGC	1.06
CAGTACAAGT	1.03
CAGTACGAAC	1.35
CAGTACGCAG	1.05
CAGTACTATC	0.983
CAGTAGAGTG	0.989
CAGTAGGTTA	0.997
CAGTATTCAA	0.978
CAGTCACTG	0.98
CAGTCATCTA	1
CAGTCCATTT	0.94
CAGTCGGCAA	2.31
CAGTCTCTCT	0.953
CAGTCTGTAC	1.65
CAGTGATTCA	0.998
CAGTGTAATC	1.06
CAGTGTCAGC	0.959
CAGTGTCTCG	0.96
CAGTGTCTT	0.983

Sequence	switch fluorescence ratio
CAGTGTGGGG	0.983
CAGTTAAGAA	0.99
CAGTTAGCG	0.981
CAGTTATAGT	1.06
CAGTTCAGAT	0.98
CAGTTCCCCC	1.04
CAGTTGACCG	1.05
CAGTTGGTCT	1.02
CAGTTGTACG	0.976
CAGTTTAAGA	1.04
CAGTTTCGAA	1.02
CAGTTTGGAT	0.993
CAGTTTTCAG	0.977
CAGTTTTGT	0.983
CATAAAAAG	1.02
CATAAAAGTT	1.02
CATAAAGAGC	1.03
CATAAAGGTC	1.02
CATAAATTAT	0.977
CATAAATTTG	0.96
CATAACTTTA	1.04
CATAAGACTT	0.996

Sequence	switch fluorescence ratio
CATAAGGCTT	0.948
CATAAGTAAA	0.996
CATAAGTGG	1
CATAATAAAC	1.01
CATAATAGGG	1.01
CATAATGGGG	0.947
CATAATGGTA	0.951
CATAATTTCG	1.02
CATACGTATC	1.44
CATACTGGTG	1.22
CATACTTGCC	1.01
CATACTTTCA	1.02
CATAGAATG	1.03
CATAGACAAT	1.07
CATAGAGTCG	1.04
CATAGCCAAA	0.978
CATAGCCCGA	1.03
CATAGCGGAC	3
CATAGGCT	1.01
CATATAATCG	0.965
CATATAGACA	1.04
CATATAGGTT	0.95

Sequence	switch fluorescence ratio
CATATATGG	0.99
CATATCAGGG	1.04
CATATCGTCC	1.02
CATATGATTA	0.996
CATATGGCAA	1.5
CATATGGTTA	0.967
CATATGTCTT	1
CATATTCCGG	1.01
CATATTCGTT	1.01
CATATTCTAA	0.948
CATATTTAGA	0.998
CATCACATGC	1.16
CATCACTCCA	1.36
CATCAGCGAC	5.98
CATCATATAT	1
CATCATCGG	1
CATCATCTTT	1.02
CATCCAATCT	1.1
CATCCACGCA	1.89

From the supplement of paper PMC10126150
